Reference: PubChem BioAssay (NCI)
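Assay format: 96-well plates, 48-hour exposure. Here, GI50 denotes the concentration required for 50% inhibition of growth.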 The source holds more than one record for some entries. Only these are listed. The source may hold further records. For some of these results: Records of one sample usually come from different ranges of test concentrations, not given here; a value can be the end of its range. For some of these results: Values given together are repeats across runs, samples, wells, individuals or studies. A tag in brackets gives the origin of a value. The letters are not those of the source and start again with each entry.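 TGI is the concentration that stops growth completely.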

Assays:
Assay in all cases: NCI tumour cell line growth inhibition, 48 h
CCRF-CEM leukemia = test system: CCRF-CEM leukemia
HOP-18 NSCLC = test system: HOP-18 NSCLC
HCT-116 colon = test system: HCT-116 colon
UO-31 renal = test system: UO-31 renal
OVCAR-3 ovarian = test system: OVCAR-3 ovarian
SNB-75 CNS = test system: SNB-75 CNS
OVCAR-5 ovarian = test system: OVCAR-5 ovarian
NCI/ADR-RES ovarian = test system: NCI/ADR-RES ovarian
KM12 colon = test system: KM12 colon
CAKI-1 renal = test system: CAKI-1 renal
MDA-MB-435 = test system: MDA-MB-435
MDA-MB-231 breast = test system: MDA-MB-231 breast
MDA-N = test system: MDA-N
OVCAR-4 ovarian = test system: OVCAR-4 ovarian
LOX IMVI melanoma = test system: LOX IMVI melanoma
HS 578T breast = test system: HS 578T breast
U251 CNS = test system: U251 CNS
SF-539 CNS = test system: SF-539 CNS
SF-268 CNS = test system: SF-268 CNS
SK-MEL-2 melanoma = test system: SK-MEL-2 melanoma
HOP-62 NSCLC = test system: HOP-62 NSCLC
SK-OV-3 ovarian = test system: SK-OV-3 ovarian
BT-549 breast = test system: BT-549 breast
TK-10 renal = test system: TK-10 renal
A498 renal = test system: A498 renal
HOP-92 NSCLC = test system: HOP-92 NSCLC
HCT-15 colon = test system: HCT-15 colon
SN12C renal = test system: SN12C renal
HCC-2998 colon = test system: HCC-2998 colon
PC-3 prostate = test system: PC-3 prostate
786-0 renal = test system: 786-0 renal
HT29 colon = test system: HT29 colon
OVCAR-8 ovarian = test system: OVCAR-8 ovarian
SK-MEL-5 melanoma = test system: SK-MEL-5 melanoma
NCI-H460 lung = test system: NCI-H460 lung
SW-620 colon = test system: SW-620 colon
T-47D breast = test system: T-47D breast
COLO 205 colon = test system: COLO 205 colon
M14 melanoma = test system: M14 melanoma
IGROV1 ovarian = test system: IGROV1 ovarian
SK-MEL-28 melanoma = test system: SK-MEL-28 melanoma
RXF 393 renal = test system: RXF 393 renal
MOLT-4 leukemia = test system: MOLT-4 leukemia
SF-295 CNS = test system: SF-295 CNS
A549 NSCLC = test system: A549 NSCLC
NCI-H23 lung = test system: NCI-H23 lung
K-562 leukemia = test system: K-562 leukemia

COc1ccc(-c2cc(-c3ccco3)c(C#N)c(=O)n2C2OC(COC(C)=O)C(OC(C)=O)C(OC(C)=O)C2OC(C)=O)cc1 (stereo not given)
GI50 (CCRF-CEM leukemia): 7.37 µM [sample A, 1 test] and > 100 µM [sample B, 1 test] | GI50 (HOP-18 NSCLC): > 100 µM [sample A, 1 test] and 6.5 µM [sample B, 1 test] | GI50 (HCT-116 colon): > 100 µM [sample A, 1 test] and 8.65 µM [sample B, 1 test]

CC(C)C[C@H](NC(=O)[C@@H](N)Cc1cccc2ccccc12)B(O)O
TGI (UO-31 renal): 2.06 µM and 149 nM | TGI (OVCAR-3 ovarian): 754 nM and 38.9 nM | TGI (SNB-75 CNS): 28.8 µM and 74.3 nM | TGI (OVCAR-5 ovarian): 6.71 µM and 128 nM | TGI (NCI/ADR-RES ovarian): 50 µM and 414 nM | TGI (KM12 colon): 2.21 µM and 83.4 nM | TGI (CAKI-1 renal): 2.57 µM and 79.1 nM | TGI (MDA-MB-435): 245 nM and 19.3 nM | TGI (MDA-MB-231 breast): 12.3 µM and 123 nM | TGI (MDA-N): 50 µM and 10.4 nM | TGI (OVCAR-4 ovarian): 50 µM and 228 nM | TGI (LOX IMVI melanoma): 555 nM and 44.4 nM | GI50 (HS 578T breast): 319 nM and 28.3 nM | TGI (HS 578T breast): 50 µM and 78.3 nM | TGI (U251 CNS): 5.06 µM and 252 nM | TGI (SF-539 CNS): 1.11 µM and 33.8 nM | TGI (SF-268 CNS): 50 µM and 127 nM | TGI (SK-MEL-2 melanoma): 3.16 µM and 165 nM | TGI (HOP-62 NSCLC): 3.78 µM and 201 nM | TGI (SK-OV-3 ovarian): 50 µM and 1.36 µM | TGI (BT-549 breast): 10.5 µM and 67.6 nM | TGI (TK-10 renal): 16.1 µM and 112 nM | TGI (A498 renal): 977 nM and 63.1 nM | TGI (HOP-92 NSCLC): 1.74 µM and 128 nM | TGI (HCT-15 colon): 3.69 µM and 119 nM | TGI (SN12C renal): 16.8 µM and 149 nM | TGI (HCC-2998 colon): 825 nM and 45.5 nM | TGI (PC-3 prostate): 5.76 µM and 299 nM | TGI (CCRF-CEM leukemia): 50 µM and 13.1 nM | TGI (786-0 renal): 6.21 µM and 525 nM | TGI (HT29 colon): 50 µM and 48.4 nM | TGI (OVCAR-8 ovarian): 50 µM and 220 nM | TGI (SK-MEL-5 melanoma): 840 nM and 49.4 nM | TGI (NCI-H460 lung): 4.53 µM and 233 nM | TGI (SW-620 colon): 1.26 µM and 28.7 nM | TGI (T-47D breast): 1.79 µM and 54.8 nM | TGI (COLO 205 colon): 50 µM and 264 nM | TGI (M14 melanoma): 4.73 µM and 224 nM | TGI (IGROV1 ovarian): 5.23 µM and 263 nM | TGI (SK-MEL-28 melanoma): 32.4 µM and 23.6 nM | TGI (RXF 393 renal): 476 nM and < 28.3 nM | TGI (HCT-116 colon): 459 nM and 36.2 nM | TGI (MOLT-4 leukemia): 50 µM and 49.2 nM | TGI (SF-295 CNS): 1.81 µM and < 43.9 nM | TGI (A549 NSCLC): 50 µM and 1.86 µM | TGI (NCI-H23 lung): 987 nM and 97.3 nM | GI50 (K-562 leukemia): 722 nM and 27.1 nM | TGI (K-562 leukemia): 50 µM and 487 nM

CCOC(=O)c1ccc(N[C@@H]2c3cc4c(cc3C(c3cc(OC)c(O)c(OC)c3)[C@H]3C(=O)OCC32)OCO4)cc1 (stereo not given in full)
TGI (HOP-92 NSCLC): 820 nM and 8.71 µM

O=C(Nc1ccc(Br)cc1)c1cc(Br)ccc1O
TGI (SK-OV-3 ovarian): > 68.2 µM [sample A, mean of 2 tests] and 4.86 µM [sample B, mean of 2 tests] | TGI (CCRF-CEM leukemia): 4.94 µM [sample A, mean of 2 tests] and > 100 µM [sample B, 1 test] | TGI (K-562 leukemia): 2.74 µM [sample A, mean of 2 tests] and > 100 µM [sample B, mean of 2 tests]
